Measured values reported in paper PMC12136788.
This is one part of the list.

T1: UNK ZnF1-3 (human, UniProt Q9C0B0 31-174)
T1 sequence: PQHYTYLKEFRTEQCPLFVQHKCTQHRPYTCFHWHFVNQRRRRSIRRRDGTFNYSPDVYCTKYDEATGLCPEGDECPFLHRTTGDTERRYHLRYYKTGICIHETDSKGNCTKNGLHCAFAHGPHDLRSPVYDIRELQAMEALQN

B1: 79826845_79826965_588_CDS_ENSMUSG00000043881_ENSMUST00000061222|mouse|control|control (ssRNA)
RNA: GGGAGUUCUACAGUCCGACGAUCGCGCUGCACGUUGGCCUCGCUGAGCGACACGCGACCAGUGUAGCAGUAGUCCACCAAGACCUCGAAGGACUCGGCAUCCACGUCGUGGAUCGUCACGCUGGCCUGCUGGCUCUCGUACAUCAACAGAGGAUUGAGCAUCA
B2: chr8:73998637:73998638:+_ENSMUSG00000074247_ENSMUST00000124745|mus_mus|FALSE|FALSE (ssRNA)
RNA: GGGAGUUCUACAGUCCGACGAUCGCUUGACACGAGUUACAGCAUAAAUAAAAACUCAAGGAAAAUAAAUACAUGGAUCCUAUGCGGUUGGAGGGCGCGGGCUGGAUGUAGGAGGCGGGCCGCGCUUACACACGCGGGUGGGAGCAACAGAGGAUUGAGCAUCA
B3: chr6:41757443:41757444:+_ENSG00000214736_ENST00000398881|hu_mus|hu_hu_hu_mus_False|68_78 (ssRNA)
RNA: GGGAGUUCUACAGUCCGACGAUCGAACCGUGCAGAGGCAACAUCUCAGCCGACACUGUGGACUCAAGGAACAAAAGGGGGGGGUUCAGGCAAGGAGAGGGAGUCAACUUCAGCUGCCACUCAGGUAGGAUCUUGUGGUCACAGCAACAGAGGAUUGAGCAUCA
B4: chr4:115894766:115894767:+_ENSMUSG00000028698_ENSMUST00000030464|mus_hu|mus_mus_mus_hu_True|1_58 (ssRNA)
RNA: GGGAGUUCUACAGUCCGACGAUCUUCCACACGGAAAUGUACUUCGGGUUUUCCAACGGCCAGUACCAGUCCGGCCAACUACUAGGAACAGGGUCCUCCCCCUCUCUCCUACAGAACACAACAAAAUGCCCCCGAACCCCGAACCAACAGAGGAUUGAGCAUCA
B5: chr6:38652254:38652255:-_ENSG00000124767_ENST00000373365|hu_hu|hu_hu_hu_mus_False|28_98 (ssRNA)
RNA: GGGAGUUCUACAGUCCGACGAUCCGAGAACUUCAUAAUGGGAAAAUCAAGCUUCUGCAGGAGGGUCAGUCCAAGAACCCUCGUAUAAAAAUCCAGGGACUUCUUAGGAUCCUUCACUCUUAGCAUCGUUUGCUGCAGUAGAAACAACAGAGGAUUGAGCAUCA
B6: chr16:94664741:94664742:+_ENSMUSG00000040785_ENSMUST00000117648|mus_hu|mus_mus_mus_hu_False|48_88 (ssRNA)
RNA: GGGAGUUCUACAGUCCGACGAUCUGGUACUGAUCUUGGUAGCUGAUACUCAGAAGAAAGGCUGGCCAAGGGUGUAUAUAUGCUGGUGAACUGCGACAAACCUGGUAACACGUUUAUGUAUGCUGGCGGUGUCUGGGUGAUAUCCAACAGAGGAUUGAGCAUCA
B7: 20884589_20885242_1168_3pUTR_ENSMUSG00000010205_ENSMUST00000115487|mouse|control|control (ssRNA)
RNA: GGGAGUUCUACAGUCCGACGAUCGGUGAGUCGCCCAGGAUCCCAGGCUUCUUCUGACCCUGGCUCUGGUUCUGGCUCUGGCUCUGCAGGGCUAGCUGCAGCAGUGCAGUGGACAGGGCAGGCCCGCUGAGCAGUGGCAUAGCACAACAGAGGAUUGAGCAUCA
B8: chr5:125368827:125368828:+_ENSMUSG00000079215_ENSMUST00000111417|mus_hu|motif|central (ssRNA)
RNA: GGGAGUUCUACAGUCCGACGAUCUAGCUUCAAAAGGGUUAGUCAUAUUCCCCAGCAACAGCAUGAUAAAAUAAUUCAACGGUGUAGAAAUAUAGAACUCUAGGACUAGCUGGAAACUCGGAAAUCAUUUAGCCUAAUGUUCUCCAACAGAGGAUUGAGCAUCA
B9: chr6:31620082:31620083:-_ENSG00000204463_ENST00000375976|hu_mus|FALSE|FALSE (ssRNA)
RNA: GGGAGUUCUACAGUCCGACGAUCGACCGCCCCCGCCUUCCGCCUCCGCCUCUCCUCGGUAUUCCAGCAACACGACUUAACCAACACGCGACCAAACACAUACAAACACACAUACACAGCCCACCACCCUGUGGCUCCGCCCCCCAACAGAGGAUUGAGCAUCA
B10: chr5:76988818:76988819:+_ENSMUSG00000036435_ENSMUST00000113493|mus_mus|FALSE|FALSE (ssRNA)
RNA: GGGAGUUCUACAGUCCGACGAUCUCCAUCCAGGUCUUCUGCUUCAGUCAUUGAUGCAGACAUGUUUUGAUGCUGCUGUAGUUUGAAAAAUUUACUUAUGAAGUCCUGUUCUGCCAGACACAGUGGCUCCAGUUCACUCAGCACCAACAGAGGAUUGAGCAUCA
B11: chr7:44609470:44609471:-_ENSG00000136271_ENST00000433257|hu_hu|motif|central (ssRNA)
RNA: GGGAGUUCUACAGUCCGACGAUCAGCUCCUCAAUCUUGCCUAAGUGGAACUGCUCCGUGGGAAGCACAAAGGUUAAGACGGUGCCUGGGUUGUUAGCGCGUGCUGUCCUGCCAGCUCGAUGGAUGUAGGCCUCAGGGGUUGGGCAACAGAGGAUUGAGCAUCA
B12: chr4:126583341:126583342:-_ENSMUSG00000042446_ENSMUST00000135003|mus_hu|FALSE|FALSE (ssRNA)
RNA: GGGAGUUCUACAGUCCGACGAUCUCCUCCGGCUGACACUGUGGAACCUGUGGGGAUGCUUACAAUUACUUGGCCCUGAGACAAGGGCACUACUGAAGAAUUCAUUCCAGUUGGUUUGUUGAAUAAAUUCUGGAAAGCUACCACCAACAGAGGAUUGAGCAUCA
B13: chr2:232320318:232320319:-_ENSG00000115053_ENST00000322723|hu_hu|hu_hu_hu_mus_True|38_38 (ssRNA)
RNA: GGGAGUUCUACAGUCCGACGAUCACUAUUAAAGUCUACAAAACCAAACCCUUUGGAAGAACCAGUUUCCCGAUCAGUGACUAUUCUUGCACGAACAGAGCCGUCAAAUGAUUCUUUUAAGGUCUCUUCAGUGGUAUCCUCAGACAACAGAGGAUUGAGCAUCA
B14: chr5:133537698:133537699:-_ENSG00000113575_ENST00000481195|hu_hu|motif|central (ssRNA)
RNA: GGGAGUUCUACAGUCCGACGAUCGCUCUCAUGAUUCCCUCGAAGAAUGGUGAUGCGUUCACGGUAACGAACCUUAAGAGCGGCAAGCAGUGUAACUGUUUCAACUGAAUAAUAUCCUCUGUCAACAUAAUCUCCCAUAAACAACAACAGAGGAUUGAGCAUCA

Molecular target: T1, UNK ZnF1-3
Assay: nsRBNS (natural sequence RNA bind-n-seq); RBNS binding buffer (assumed for nsRBNS): 25 mM Tris pH 7.5, 150 mM KCl, 3 mM MgCl2, 0.01% Triton X-100, 500 ug/ml BSA, 20 U/ml SUPERase-In, 4 C; UNK is unkempt and MSI1 is Musashi-1; names of the RNAs are library labels; protein concentration not given here; high values mean tight binding

| Binder | binding signal |
| --- | --- |
| B1 | 0.537 enrichment R |
| B2 | 2.04 enrichment R |
| B3 | 2.06 enrichment R |
| B4 | 1.06 enrichment R |
| B5 | 0.715 enrichment R |
| B6 | 1.15 enrichment R |
| B7 | 0.935 enrichment R |
| B8 | 1.46 enrichment R |
| B9 | 1.8 enrichment R |
| B10 | 1.08 enrichment R |
| B11 | 1.69 enrichment R |
| B12 | 0.988 enrichment R |
| B13 | 0.664 enrichment R |
| B14 | 1.28 enrichment R |
